Measured values reported in publication PMC4336329 (PLoS ONE, 2015).
Screen size: about 310,000 compounds; about 14,000 (4.5%) showed an effect of 50% or more. The effect is printed as a negative number. Some of the results follow.

molecular target: human ether-à-go-go-related gene (hERG) potassium channel (human, UniProt Q12809); experiment: primary screen, population patch clamp on CHO cells stably expressing hERG
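Also: peak tail current of the secondary pulse compared with the same well before compound.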

Sequence of human ether-à-go-go-related gene (hERG) potassium channel (Q12809 whole entry, looked up): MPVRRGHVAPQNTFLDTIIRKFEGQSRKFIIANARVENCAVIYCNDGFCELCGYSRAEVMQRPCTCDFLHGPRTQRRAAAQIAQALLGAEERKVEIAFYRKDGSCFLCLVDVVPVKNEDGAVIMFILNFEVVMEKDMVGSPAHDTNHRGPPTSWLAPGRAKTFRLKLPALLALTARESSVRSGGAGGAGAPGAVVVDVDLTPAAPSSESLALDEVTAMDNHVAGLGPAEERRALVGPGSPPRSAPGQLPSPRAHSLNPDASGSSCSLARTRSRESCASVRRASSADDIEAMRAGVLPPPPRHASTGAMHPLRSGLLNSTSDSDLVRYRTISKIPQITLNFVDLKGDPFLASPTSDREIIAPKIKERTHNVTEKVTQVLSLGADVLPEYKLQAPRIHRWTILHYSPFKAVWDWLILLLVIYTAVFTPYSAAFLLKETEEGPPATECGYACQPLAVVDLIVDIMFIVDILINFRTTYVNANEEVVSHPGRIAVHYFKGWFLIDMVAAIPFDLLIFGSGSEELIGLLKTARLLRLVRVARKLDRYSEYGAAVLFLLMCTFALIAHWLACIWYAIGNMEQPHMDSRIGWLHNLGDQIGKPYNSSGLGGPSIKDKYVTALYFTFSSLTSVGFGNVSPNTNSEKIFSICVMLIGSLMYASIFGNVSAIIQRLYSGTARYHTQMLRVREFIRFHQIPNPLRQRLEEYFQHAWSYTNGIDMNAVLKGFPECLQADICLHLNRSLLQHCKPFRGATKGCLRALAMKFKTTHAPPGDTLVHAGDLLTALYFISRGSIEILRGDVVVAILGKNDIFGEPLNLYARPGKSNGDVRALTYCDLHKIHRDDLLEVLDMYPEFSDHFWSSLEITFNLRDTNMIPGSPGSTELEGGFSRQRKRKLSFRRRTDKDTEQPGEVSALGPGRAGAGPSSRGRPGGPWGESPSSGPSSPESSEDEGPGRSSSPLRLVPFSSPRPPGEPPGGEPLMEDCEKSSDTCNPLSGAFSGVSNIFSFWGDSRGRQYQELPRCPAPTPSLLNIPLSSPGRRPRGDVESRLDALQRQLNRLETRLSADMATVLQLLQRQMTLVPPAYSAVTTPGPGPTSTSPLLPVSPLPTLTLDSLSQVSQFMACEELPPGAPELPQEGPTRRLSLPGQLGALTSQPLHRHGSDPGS

| Structure (SMILES) | hERG current change (%, negative = inhibition) at 10uM |
| --- | --- |
| Cc1cc(Cl)ccc1C(=O)C1CCCN(C(=O)c2snnc2C)C1 (centres unmarked) | -56.1% |
| COc1ccc(NC(=S)NC2CC3CCCC(C2)N3C2CC2)cc1 (centres unmarked) | -41.3% |
| O=C(CCNC(=O)N1CC(=O)Nc2ccccc21)NCc1cccc(Cl)c1 | -2.37% |
| Cc1nc(-c2ccccc2)sc1C(=O)O | 7.03% |
| Cc1ccnc(NC(=O)CNC(=O)c2sc3ccccc3c2Cl)c1 | 0.658% |
| O=c1oc2cc(OCc3c(F)cccc3Cl)ccc2cc1-c1ccccn1 | -1.01% |
| CCOC(=O)c1cc(OC(=O)c2ccccc2)n(-c2ccccc2)n1 | -5.36% |
| CC(c1ccccc1)n1c(-c2ccc(Cl)cc2)n[nH]c1=S (centres unmarked) | 13.9% |
| CCOC(=O)Nc1ccc2c(c1)N(C(=O)OCCN(C)C)c1ccccc1CC2 | -38.9% |
| CCOc1cc(/C=N/n2cnnc2)c(Br)cc1O | -7.49% |
| CCOC(=O)C(C)Sc1ncnc2c1c(-c1ccccc1)cn2-c1ccc(OC)cc1 (centres unmarked) | 6.91% |
| Cc1nc(C)c(C(=O)NNS(=O)(=O)c2ccc3ccccc3c2)s1 | -3.21% |
| O=C(Nc1ccc(O)cc1)/C(=C\C=C\c1ccccc1)NC(=O)c1ccccc1 | -7.34% |
| CCOc1cc(/C=N/NC(N)=S)cc(Br)c1OCc1ccccc1C | 16.3% |
| CCOC(=O)C1=C(N)Oc2cc(O)ccc2C1c1ccc(F)cc1F (centres unmarked) | 11.8% |
| CCOC(=O)CC(NC(=O)C1c2ccccc2Oc2ccccc21)c1ccccc1Cl (centres unmarked) | 29% |
| O=C(NCc1nnnn1-c1cccc(F)c1)c1ccc(S(=O)(=O)N2CCOCC2)cc1 | -2.15% |
| COc1ccc(/C=C2\Sc3ccc(C(=O)N4CCc5ccccc5C4)cc3N(C)C2=O)cc1 | 7.98% |
| O=C(CC1NCCNC1=O)Nc1ccc(Cl)c(Cl)c1 (centres unmarked) | 3.96% |

| Structure (SMILES) | hERG current change (%, negative = inhibition) at 10uM |
| --- | --- |
| CC1(C)CC(=O)C(C(=O)Cc2ccccc2[N+](=O)[O-])C(=O)C1 | 34.3% |
| C/C=C(\C)C(=O)Nc1cccc(C2=NOC3(C2)C[C@H](C(N)=O)N(C(=O)c2cc([N+](=O)[O-])cc([N+](=O)[O-])c2)C3)c1 (some centres unmarked) | 4.21% |
| O=C(CCC1CCCN(C(=O)c2cccnc2)C1)NCc1ccccc1F (centres unmarked) | 1.5% |
| CCc1nnc(NC(=O)CSc2nnc(-c3ccccc3OC)n2-c2ccc(C)cc2)s1 | 10.5% |
| Nc1nc(C2CCCCC2)cs1 | -4.06% |
| Cc1ccc(S(=O)(=O)N(Cc2cc3cc4c(cc3[nH]c2=O)OCCO4)CC2CCCO2)cc1 (centres unmarked) | 12.3% |
| Cc1cc(C)cc(N(C(=O)c2csnn2)C(C(=O)NC(C)(C)C)c2cccs2)c1 (centres unmarked) | -13.6% |
| COCc1ccc(C(=O)NC(C)c2cnn(-c3ccccc3C)c2C)o1 (centres unmarked) | 10.2% |
| O=C(NC1CCCc2ccccc21)c1ccc(F)cc1F (centres unmarked) | -7.09% |
| Cc1cc(N2CCN(Cc3cn(C)nc3-c3ccccc3F)CC2)cc(C)n1 | -35% |
| CC1C(C#N)=C(N)OC2=C1C(=O)CCC2 (centres unmarked) | -16.7% |
| C=CCOC(=O)Nc1ccc(Cl)cc1NC(=O)OCC=C | -18.1% |
| O=C(Nc1cccc(-c2nnn(CC(=O)N3CCc4ccccc4C3)n2)c1)C1CCC1 | 2.59% |
| O=c1[nH]c(CSc2nc3ccccc3s2)nc2cc(Cl)ccc12 | 12.9% |
| CC(Oc1ccccc1)C(=O)OCC(=O)NC(=O)NCc1ccco1 (centres unmarked) | 11.2% |
| Cc1cc(=O)[nH]c(N=N/C(=N/Nc2ccc(O)cc2)c2ccccc2)n1 | 6.74% |
| O=C(NCCOc1ccccc1)c1ncn[nH]1 | 21.1% |
| COc1ccc(S(=O)(=O)N2CCC(Nc3ccccc3Cl)CC2)cc1 | 11.6% |
| COC(=O)c1ccccc1NC(=O)NC1CCN(Cc2ccccc2)CC1 | -31.1% |

| Structure (SMILES) | hERG current change (%, negative = inhibition) at 10uM |
| --- | --- |
| CC(Oc1ccc(Br)cc1)C(=O)NNC(=O)CCN1CCN(c2ccccc2)CC1 (centres unmarked) | -61.9% |
| O=C(OCc1ccccc1)C1=[N+]([O-])OC(C(=O)OCc2ccccc2)C1c1c[nH]c2ccccc12 (centres unmarked) | 4.64% |
| CC(=O)Nc1ccc(NC(=O)COC(=O)c2cc([N+](=O)[O-])ccc2N2CCOCC2)cc1 | 0.326% |
| Cc1ccnn1CCC(=O)O | 11.1% |
| CCSc1nc2ccc(N3C(=O)C4C5C=CC(C5)C4C3=O)cc2s1 (centres unmarked) | 3.17% |
| O=C(NCCN1C(=O)S/C(=C\c2ccccc2)C1=O)C1CCN(S(=O)(=O)c2cccs2)CC1 | -23.8% |
| CCC(=O)Oc1ccc2c(=O)c(-c3ccc4ccccc4n3)c(CC)oc2c1C | 13.6% |
| COc1ccccc1OCCn1cc(/C=N/NC(=O)c2ccncc2)c2ccccc21 | -1.26% |
| O=c1[nH]cnc2nc3n(c12)CCCCC3 | 3.06% |
| CCN(CC)c1ccc(Nc2nc(Cl)ncc2Br)cc1 | -22.5% |
| CCC(=O)Nc1ccc2nc(C)n(CC(=O)Nc3ccccc3)c(=O)c2c1 | -0.357% |
| Cc1ccc(NC(=O)c2ccc(C(C)(C)C)cc2)cc1-n1cnnn1 | 11.7% |
| O=C(Nc1ccccn1)c1cc2ccccc2o1 | 8.5% |
| Cc1ccc(CNC(=O)c2sccc2-n2cccc2)cc1 | -14.7% |
| COC(=O)c1oc2ccccc2c1-n1cccc1 | -3.71% |
| CC1CCCCC1NC(=O)COC(=O)c1ccc2c(c1Cl)C(=O)c1ccccc1C2=O (centres unmarked) | 13% |
| Cc1ccc(-n2nnnc2-c2ccccc2Br)cc1 | -37.8% |
| Cc1noc(C)c1S(=O)(=O)N1CCCC(C(=O)Nc2nccs2)C1 (centres unmarked) | -13.6% |
